PubChem BioAssay AID485344 (National Center for Advancing Translational Sciences (NCATS), 2010)
The whole screen tested about 340,000 compounds, of which about 6,900 (2%) were called active. Cut-off read from the data, not from the text of the source: active = inhibition above about 30%; inactive = below that, where a call was filed. This is a selection; strong and weak results do not stand in their true shares. The source gives no active or inactive call for entries shown without one.
Note: 0% is about no effect.

What follows are compounds tested against D(2) dopamine receptor (Homo sapiens) (UniProt P14416) (assay: HTS Assay for Allosteric Antagonists of the Human D2 Dopamine Receptor: Primary Screen for Antagonists). Conditions: HEK293 TREx D2 cells, calcium flux, dopamine EC80; at 10 µM; stronger effect = higher value.
Sequence of UniProt P14416 (P14416 whole entry, looked up): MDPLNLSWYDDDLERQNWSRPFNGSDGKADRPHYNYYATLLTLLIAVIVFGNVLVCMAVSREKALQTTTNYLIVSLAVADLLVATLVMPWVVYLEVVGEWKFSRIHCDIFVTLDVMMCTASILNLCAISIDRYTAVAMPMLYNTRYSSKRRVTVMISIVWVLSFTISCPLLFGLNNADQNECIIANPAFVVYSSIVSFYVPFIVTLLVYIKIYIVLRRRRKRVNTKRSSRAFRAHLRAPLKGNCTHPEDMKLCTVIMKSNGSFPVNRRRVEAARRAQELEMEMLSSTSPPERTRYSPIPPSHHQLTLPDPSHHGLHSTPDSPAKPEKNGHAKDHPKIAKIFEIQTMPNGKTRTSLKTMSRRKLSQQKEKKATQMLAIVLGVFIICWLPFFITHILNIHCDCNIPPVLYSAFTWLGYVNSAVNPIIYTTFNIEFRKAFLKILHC
Procedure, shortened: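 Calcium flux kinetic readout in an inducible HEK293 TREx D2 line plated overnight at 30 C. After 180 s compound exposure, an EC80 dopamine challenge follows with another 180 s kinetic read to detect antagonism.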
With `COc1cccc(NC(=O)C(=O)NCCc2sc(-c3cccc(C)c3)nc2C)c1` the inhibition was 5.82%.
In the case of `COc1ccc(Nc2nc(N)nc(CSc3nc4ccccc4s3)n2)cc1`, the inhibition is reported as 4.15%.
`Cc1cc(C)c(Nc2nn3c(=O)c4cc5c(cc4nc3s2)OCO5)c(C)c1` gave an inhibition of 18.3%.
Compound `CNC(=O)c1cc2c(n(-c3ccc(C)cc3)c1=O)CC(C)(C)CC2=O` has an inhibition of 1.95%.
With `O=C(Nc1ccc2nc(SCC(=O)N3CCOCC3)sc2c1)c1ccc(F)cc1` the inhibition was -6.16%.
With `COc1cc(OC)cc(-c2nc3nc(C)c(CCC(=O)Nc4ccc(Cl)cc4)c(C)n3n2)c1` the inhibition was 15.8%.
Compound `COc1cccc(C(=O)Nc2ccc3oc(-c4ccc5ccccc5c4)nc3c2)c1` has an inhibition of 0.916%.
`O=C(Nc1ccccc1)/C(=C\c1ccc2c(c1)OCO2)NC(=O)c1ccco1` was tested, and the inhibition was active: 30%.
Compound `O=C(Nc1ccccc1F)C(Cc1ccccc1)n1cccc1` (stereo not drawn) has an inhibition of -14.5%.
For `COCCCNc1nc2c(c(=O)n(C)c(=O)n2C)n1Cc1cccc(OC)c1`, the inhibition was active: 39.7%.
For `COc1ccc(-c2c3c(=O)n(C)c(=O)n(C)c3c3c(-c4ccccc4)nc4ccccc4n23)cc1`, the inhibition was 0.188%.
`COc1ccc(Cn2c(C(=O)O)c(CNCc3cccs3)c3ccc(C)cc32)cc1` gave an inhibition of -4.63%.
In the case of `Cc1ccc(S(=O)(=O)N(C)C)cc1NC(=S)Nc1ccc2cn[nH]c2c1`, the inhibition is reported as active: 43%.
`CCC(CC)C(=O)NC12CC3CC(CC(C3)C1)C2` was tested, and the inhibition was active: 32.5%.
`CN1CCN(C(c2ccc(F)cc2)c2sc3nc(-c4ccco4)nn3c2O)CC1` (stereo not drawn) gave an inhibition of -9.39%.
Work on `CCn1c(C)c(C)c2cc(C(=O)NCCc3cc(OC)c(OC)c(OC)c3)ccc21` yielded an inhibition of 2.91%.
`CCc1ccc(S(=O)(=O)c2nnn3c2nc(NCc2cccs2)c2sccc23)cc1` was tested, and the inhibition was -19%.
Compound `CCOC(=O)Cn1c(=O)oc2cc(S(=O)(=O)Nc3cc(OC)cc(OC)c3)ccc21` has an inhibition of 16.9%.
In the case of `COc1ccc(N2CCN(C(=O)C3CCN(S(=O)(=O)c4cnc[nH]4)CC3)CC2)cc1`, the inhibition is reported as -18.5%.
Work on `COc1ccccc1C(=O)NCc1ccc2c(c1)CCN2C(=O)c1cccc(C)c1` yielded an inhibition of -3.09%.
Work on `CCc1ccccc1Nc1nn2c(=O)c3ccc(C(=O)NCc4cccs4)cc3nc2s1` yielded an inhibition of 14.5%.
For `O=C(CN1CCN(c2ccccn2)CC1)Nc1ccccc1F`, the inhibition was active: 56.9%.
With `COc1cc(S(=O)(=O)N2CCCCC2)ccc1NC(=O)c1ccncc1` the inhibition was active: 37.4%.
`CN1C/C(=C/c2ccsc2)C(=O)/C(=C/c2ccsc2)C1` was tested, and the inhibition was active: 44.4%.
Work on `COc1ccc(CNS(=O)(=O)c2cc(C(=O)Nc3cc(Cl)cc(Cl)c3)ccc2F)cc1` yielded an inhibition of -22.6%.
`CCc1ccc(CNC(=O)C(CC)n2ccc3cc(S(=O)(=O)N4CCCCC4)ccc32)cc1` (stereo not drawn) gave an inhibition of 8.2%.
Compound `CCOC(=O)C1CCCN(C(=O)C2CCN(c3nnc(C)c4c(C)n(-c5ccccc5)nc34)CC2)C1` (stereo not drawn) has an inhibition of 1.7%.
Work on `COc1ccccc1C(=O)NCc1ccc2c(c1)CCN2C(=O)c1ccncc1` yielded an inhibition of 3.45%.
With `COc1cccc(/C=C/C(=O)OCC(=O)c2ccc3c(c2)NC(=O)CO3)c1` the inhibition was active: 42.1%.
`Cc1cc(NC(=O)CSc2nc3c([nH]c4ccccc43)c(=O)n2-c2cccc(Cl)c2)no1` showed an inhibition of 5.12%.
With `COc1ccc(N2CCN(C(=O)C34CCC(C)(C(=O)C3)C4(C)C)CC2)cc1` (stereo not drawn) the inhibition was active: 36.8%.
Work on `CCOc1ccccc1NC(=O)C(Cc1ccccc1)NS(=O)(=O)c1ccc(Br)s1` (stereo not drawn) yielded an inhibition of -6.22%.
`COc1cc(C)cc2oc(=O)c(CC(=O)N3CCN(C(=O)C4COc5ccccc5O4)CC3)c(C)c12` (stereo not drawn) was tested, and the inhibition was active: 37.1%.
For `COc1cc(NC(=O)CN(C)S(=O)(=O)c2ccc3[nH]c4c(c3c2)CCCC4)cc(OC)c1OC`, the inhibition was 0.19%.
`COc1ccc(OC2CCN(S(=O)(=O)c3ccc(OC)cc3)CC2)cc1` was tested, and the inhibition was 16%.
`CCOC(=O)N1CCc2c(sc(NCc3ccc(OCC)cc3)c2C(=O)Nc2ccc(OC)cc2OC)C1` showed an inhibition of -8.59%.
With `Cc1ccc(Nc2c([N+](=O)[O-])c(=O)oc3ccccc23)cc1` the inhibition was active: 31.5%.
Compound `O=C(NC1CCCC1)c1ccc(CSc2nc3ccncc3n2Cc2ccccc2F)cc1` has an inhibition of -6.22%.
Compound `CC1=C(C(=O)Nc2cccnc2)C(c2ccc(F)cc2)n2nc(SCc3ccccc3F)nc2N1` (stereo not drawn) has an inhibition of 2.21%.
`Cc1cccc(S(=O)Cc2ccc(C(=O)NC3CCN(Cc4ccccc4)CC3)o2)c1` (stereo not drawn) was tested, and the inhibition was active: 44.4%.
Work on `CCN(C(=O)c1cc2c(Cl)nc3ccccc3c2s1)c1cccc(Cl)c1` yielded an inhibition of -10.3%.
With `CCOC(=O)c1cnc2c(C)c(Cl)ccc2c1Nc1ccc(C)cc1C` the inhibition was 10.3%.
With `COc1ccc(C(CNC(=O)c2cccc(S(=O)(=O)N3CCCC(C)C3)c2)N(C)C)cc1` (stereo not drawn) the inhibition was active: 76.4%.
`CN1c2cc(Cl)ccc2-c2nc(SCC(=O)Nc3ccc(F)cc3F)ncc2S1(=O)=O` was tested, and the inhibition was -0.516%.
In the case of `CCOc1ccccc1/C=N/NC(=O)C[n+]1ccccc1`, the inhibition is reported as active: 33.2%.
`Cc1ccc(NC(=O)c2sc(-n3nc(C)c(CCC(C)C)c3C)nc2C)cc1C` was tested, and the inhibition was 18.9%.
With `Cc1nc2ccn(Cc3cccs3)c(=O)c2cc1C(=O)N1CCN(c2ccc(F)cc2)CC1` the inhibition was -0.713%.
For `COc1ccc(-c2cc3c(=O)n(CC(=O)NCCCN4CCC(Cc5ccccc5)CC4)ncn3n2)cc1`, the inhibition was active: 89.1%.
Compound `O=C(CN(c1ccc(Cl)c(C(F)(F)F)c1)S(=O)(=O)c1ccccc1)N1CCc2ccccc2C1` has an inhibition of 2.62%.
Work on `COc1ccccc1CNc1cc(-c2ccccc2)nc2nncn12` yielded an inhibition of -5.92%.
Work on `CCOc1cccc(C(=O)Nc2c(C(=O)c3ccc(OC)cc3)oc3ccccc23)c1` yielded an inhibition of -11.1%.
For `CCCCOC(=O)c1ccc(NC(=O)c2cc(-c3ccccc3)on2)cc1`, the inhibition was 11.4%.
`COc1ccc(N2Cc3cccc(C(=O)Nc4ccc(C(C)C)cc4)c3C2=O)cc1` showed an inhibition of 0.174%.
`CCc1ccccc1N(C)C(=O)C1CCCN(c2ncnc3onc(-c4ccc(F)cc4)c23)C1` (stereo not drawn) was tested, and the inhibition was -2.61%.
In the case of `CCCN1CCc2nc(N3CCN(CC)CC3)ncc2C1`, the inhibition is reported as 3.22%.
`Cc1ccc(OCCn2c(CNc3cccc(C)c3)nc3ccccc32)cc1` gave an inhibition of -6.22%.
With `COc1ccc2c(c1)Cc1sc(NC(=O)c3ccccc3Br)nc1-2` the inhibition was 3.69%.
`CCn1c(SCC(=O)Nc2ccc(C)cc2Br)nnc1-c1nonc1NC(C)=O` gave an inhibition of 4.56%.
With `CCc1ccc(NC(=O)c2ccc3c(c2)N(Cc2ccc(C)cc2)CCS3)cc1` the inhibition was -14.1%.
`O=C(CC1N=C2c3ccccc3N=C(SCC(=O)Nc3cccc(Cl)c3)N2C1=O)NCc1cccs1` (stereo not drawn) gave an inhibition of -11%.
`COc1ccc(CCNC(=O)Cn2cc(S(=O)(=O)Cc3ccccc3F)c3ccccc32)cc1OC` showed an inhibition of 2.75%.
For `CC1CCN(S(=O)(=O)c2ccc(N3CCCCS3(=O)=O)cc2)CC1`, the inhibition was 4.18%.
`Cc1cccc(Cn2c(=O)n(CCC(=O)NCc3ccc4c(c3)OCO4)c(=O)c3sccc32)c1` gave an inhibition of -24.7%.
For `Cc1ccc2c(=O)cc(C(=O)Nc3nnc(CC(C)C)s3)oc2c1C`, the inhibition was -2.7%.
In the case of `COc1cccc(CNC(=O)CSc2nc(=O)[nH]c3c2CCCC3)c1`, the inhibition is reported as -1.4%.
Work on `Oc1c(C(c2ccc(Cl)cc2Cl)N2CCOCC2)sc2nc(-c3ccco3)nn12` (stereo not drawn) yielded an inhibition of 14.2%.
`O=C(NCc1ccc(F)cc1)c1ccc(CS(=O)(=O)c2ccc(Cl)cc2)o1` showed an inhibition of -6.59%.
`CCc1ccc(NC(=O)Cn2c(=O)c(-c3ccccc3NC(C)=O)nc3ccccc32)cc1` was tested, and the inhibition was -24.7%.
`CCOc1ccc(S(=O)(=O)N(CC(=O)NCCSCc2ccc(C)cc2)c2ccccc2)cc1` gave an inhibition of -3.28%.
For `C[C@@H]1NC(=O)[C@H](CCCN=C(N)N)NC(=O)c2cc([N+](=O)[O-])cc(I)c2OCC[C@@H](C(N)=O)NC1=O`, the inhibition was active: 31.9%.
Work on `CCn1ccc2cc(S(=O)(=O)N3CCCN(C(=O)Nc4ccccc4C(F)(F)F)CC3)ccc21` yielded an inhibition of 21.7%.
`Cc1cccc(N2C(=O)CSC23C(=O)N(Cc2cccc(F)c2)c2ccccc23)c1` (stereo not drawn) was tested, and the inhibition was -15.5%.
For `CN1CCN(C(CNC(=O)C(=O)Nc2ccccc2)c2ccc3c(c2)OCO3)CC1` (stereo not drawn), the inhibition was 15.7%.
In the case of `CCOC(=O)c1c(C)n(-c2ccccc2)c2ccc(OC(=O)c3ccccc3)cc12`, the inhibition is reported as -0.96%.
In the case of `Cc1cccc(-c2noc(CN(C(=O)COc3ccc(C(C)C)cc3)C(C)C)n2)c1`, the inhibition is reported as -14.6%.
Work on `Cc1ccc(C)c(CSc2nc3ncccc3[nH]2)c1` yielded an inhibition of 7.27%.
`COc1ccc(C2=NS(=O)(=O)N(C)C(C(=O)Nc3cc(C)ccc3O)=C2)cc1OC` gave an inhibition of -1.25%.
Compound `Cc1nc(N2C(=O)c3oc4ccccc4c(=O)c3C2c2ccccc2F)sc1C` (stereo not drawn) has an inhibition of -5.94%.
`COc1cccc(N2CCN(S(=O)(=O)c3cc(Br)cc4c3N(C(=O)C3CC3)CC4)CC2)c1` gave an inhibition of 4.88%.
For `COc1ccc(-c2cc(C(=O)NCc3cc(OC)c(OC)c(OC)c3)[nH]n2)cc1`, the inhibition was -16.4%.
Work on `CCc1ccc(S(=O)(=O)c2nnn3c2nc(N2CCC(C)CC2)c2cc(Cl)ccc23)cc1` yielded an inhibition of -6.88%.
Compound `Cc1cccc(OCC(=O)Nc2c(C)ccc3nsnc23)c1C` has an inhibition of -0.87%.
Compound `Cc1ccc(Cl)c2c1N[C@@H](c1ccc(C(=O)O)cc1)[C@H]1CC=C[C@@H]21` has an inhibition of -18.3%.
Work on `Cc1ccc(C)c(NC(=O)CCN2C(=O)c3ccccc3Sc3ncccc32)c1` yielded an inhibition of 20.1%.
For `O=C(CSc1ncc(S(=O)(=O)c2ccc(Br)cc2)c(=O)[nH]1)NCc1ccc(Cl)cc1`, the inhibition was 9.04%.
`CCOc1ccc(-c2nc(CSCC(=O)N3CCN(c4cccc(C(F)(F)F)c4)CC3)c(C)o2)cc1` showed an inhibition of 3.37%.
Work on `Cc1c(CC(=O)NCCc2ccccc2F)c(=O)oc2c(C)c3occ(C(C)(C)C)c3cc12` yielded an inhibition of 13%.
With `Cc1csc(NC(=O)C2CC(=O)N(c3ccc(C)c(C)c3)C2)n1` (stereo not drawn) the inhibition was active: 50.8%.
Compound `COc1cccc(N2CCN(C(=O)c3ccc4c(=O)n(CCc5ccccc5)c(=O)[nH]c4c3)CC2)c1` has an inhibition of -7.65%.
Work on `COc1ccc(NC(=O)CSc2cn(CC(=O)N3CCOCC3)c3ccccc23)cc1OC` yielded an inhibition of 15.2%.
With `CCOC(=O)c1c(C)n(C)c2ccc(OC)c(NC(=O)CCN3CCC(Cc4ccccc4)CC3)c12` the inhibition was active: 90.8%.
`COc1ccccc1CNS(=O)(=O)c1cc(C(=O)Nc2cccc(C(F)(F)F)c2)ccc1F` was tested, and the inhibition was -23.4%.
Compound `CC(C)COC(=O)/C(C#N)=C\c1ccc(-c2ccccc2Cl)o1` has an inhibition of 0.0321%.
